Measurements taken from PMC5853960.
These are yes or no findings as the source states them, for the method shown. Binding seen in cells or lysates may run through a third protein. Some binding calls cover weakened binding; strength is not graded here. For some assays here: Tags and fused reporters may be left off the sequences shown.

T1: QQT1–nLUC (Arabidopsis thaliana) (UniProt Q56XY2)
T1 sequence: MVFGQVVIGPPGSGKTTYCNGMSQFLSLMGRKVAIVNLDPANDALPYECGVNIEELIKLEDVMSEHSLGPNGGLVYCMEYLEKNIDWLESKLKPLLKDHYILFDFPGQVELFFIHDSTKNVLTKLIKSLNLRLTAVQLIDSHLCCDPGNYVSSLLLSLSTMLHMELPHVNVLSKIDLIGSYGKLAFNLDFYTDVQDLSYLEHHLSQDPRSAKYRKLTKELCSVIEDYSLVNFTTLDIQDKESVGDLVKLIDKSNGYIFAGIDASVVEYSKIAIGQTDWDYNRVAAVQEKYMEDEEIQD

T2: RAR1, LCI positive control construct (UniProt Q9SE33)
T2 sequence: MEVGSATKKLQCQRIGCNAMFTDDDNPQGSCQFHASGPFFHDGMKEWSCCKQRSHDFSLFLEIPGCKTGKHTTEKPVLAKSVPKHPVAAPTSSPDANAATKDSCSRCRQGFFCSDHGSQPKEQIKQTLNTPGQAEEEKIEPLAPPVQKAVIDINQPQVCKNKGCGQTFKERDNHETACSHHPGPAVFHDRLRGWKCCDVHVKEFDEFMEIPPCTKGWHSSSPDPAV


Tests used:
[1] = target: T1, QQT1–nLUC (Arabidopsis thaliana); assay: split reporter; firefly luciferase complementation imaging (LCI): nLUC and cLUC fusions co-expressed by agroinfiltration (with p19) in N. benthamiana leaves for 2 d; 1 mM luciferin sprayed, LUC images taken
[2] = target: T2, RAR1, LCI positive control construct; assay: as above

Row | Binder | binding [1] | binding [2]
1 | translocon at the outer envelope membrane of chloroplasts 33 (TOC33)–cLUC (protein, UniProt O23680 1-297) MGSLVREWVGFQQFPAATQEKLIEFFGKLKQKDMNSMTVLVLGKGGVGKSSTVNSLIGEQVVRVSPFQAEGLRPVMVSRTMGGFTINIIDTPGLVEAGYVNHQALELIKGFLVNRTIDVLLYVDRLDVYRVDELDKQVVIAITQTFGKEIWCKTLLVLTHAQFSPPDELSYETFSSKRSDSLLKTIRAGSKMRKQEFEDSAIAVVYAENSGRCSKNDKDEKALPNGEAWIPNLVKAITDVATNQRKAIHVDKKMVDGSYSDDKGKKLIPLIIGAQYLIVKMIQGAIRNDIKTSGKPL | binds | –
2 | microtubule-associated protein 65-7 (MAP65-7)–cLUC (protein, UniProt Q8L836 1-603) MLEIESPTSLCFRTNTTCNALLRELQKIWVDIGESDAEKDRMLMELEKECLEIYRRKVDEAANSKAQLHQSLVSIEAEIASLLAALGVFNSHSPMKAKEGSKSLKEKLAAVRPMLEDLRLQKDERMKQFVDIKAQIEKMSGEISGYSDQLNKTMVGSLALDEQDLTLRKLNEYQTHLRSLQKEKSDRLNKVLDYVNEVHTLCGVLGVDFGQTVSEVHPSLHRTDHEQSTNISDDTLDGLHHMIHKLKTERSVRFQKLKDVAGSLFELWNLMDTSQEERTKFASVSYVVRSSESDITEPNILSSETIEQVSAEVDCFNKLKASRMKELVMKRRTELENLCRLAHIEADTSTSLEKSTALIDSGLVDPSELLTNIELHINKIKEEAHSRKEIIDRIDRWLSACEEENWLEEYNQDETRYSAGRGGHVNLKHAERARITVNKIPSMVDNLIKKTLLWEDETRKSFLYDGVRLVSILEDYKLTRKQQEEEKRRYRDQKKMQDLLIKRRESIYGSKPSPRRSNSVRKTNGYNGDASVPPTPRRNSAGATNNDIMTTPRSYSSHRQNGYFKEVRRLSTAPLNFVAIPKEDSVSTYTSVCGSEPDSPLYN | binds | –
3 | SGT1b, LCI positive control construct (protein, UniProt Q9SUT5 1-358) MAKELAEKAKEAFLDDDFDVAVDLYSKAIDLDPNCAAFFADRAQANIKIDNFTEAVVDANKAIELEPTLAKAYLRKGTACMKLEEYSTAKAALEKGASVAPNEPKFKKMIDECDLRIAEEEKDLVQPMPPSLPSSSTTPLATEADAPPVPIPAAPAKPMFRHEFYQKPEEAVVTIFAKKVPKENVTVEFGEQILSVVIDVAGEEAYHLQPRLFGKIIPEKCRFEVLSTKVEIRLAKAEIITWASLEYGKGQSVLPKPNVSSALSQRPVYPSSKPAKDWDKLEAEVKKQEKDEKLDGDAAMNKFFSDIYSSADEDMRRAMNKSFAESNGTVLSTNWKEVGTKKVESTPPDGMELKKWEY | – | binds
4 | QQT1–nLUC (protein, UniProt Q56XY2 1-298) MVFGQVVIGPPGSGKTTYCNGMSQFLSLMGRKVAIVNLDPANDALPYECGVNIEELIKLEDVMSEHSLGPNGGLVYCMEYLEKNIDWLESKLKPLLKDHYILFDFPGQVELFFIHDSTKNVLTKLIKSLNLRLTAVQLIDSHLCCDPGNYVSSLLLSLSTMLHMELPHVNVLSKIDLIGSYGKLAFNLDFYTDVQDLSYLEHHLSQDPRSAKYRKLTKELCSVIEDYSLVNFTTLDIQDKESVGDLVKLIDKSNGYIFAGIDASVVEYSKIAIGQTDWDYNRVAAVQEKYMEDEEIQD | no binding | –
5 | GRP7 protein, LCI construct (protein, UniProt Q03250 1-176) MASGDVEYRCFVGGLAWATDDRALETAFAQYGDVIDSKIINDRETGRSRGFGFVTFKDEKAMKDAIEGMNGQDLDGRSITVNEAQSRGSGGGGGHRGGGGGGYRSGGGGGYSGGGGSYGGGGGRREGGGGYSGGGGGYSSRGGGGGSYGGGRREGGGGYGGGEGGGYGGSGGGGGW | no binding | –
